The other results are listed elsewhere or left out.

The target in this assay is T1, OsWOX13 (Oryza sativa, UniProt Q5QMM3 1-267).
T1 sequence: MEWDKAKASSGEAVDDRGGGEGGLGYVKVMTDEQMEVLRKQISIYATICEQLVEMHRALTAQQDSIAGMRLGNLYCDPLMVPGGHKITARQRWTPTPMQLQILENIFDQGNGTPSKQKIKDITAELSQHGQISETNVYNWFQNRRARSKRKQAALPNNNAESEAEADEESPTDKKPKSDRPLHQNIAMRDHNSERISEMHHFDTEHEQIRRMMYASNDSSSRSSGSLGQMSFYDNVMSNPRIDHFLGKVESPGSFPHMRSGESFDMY
Briefly: protein-binding microarray (RPBM); PBS, 2% BSA, 51.3 ng/ul salmon testes DNA, 50 uM zinc acetate, 200 nM TF, 25 C, 1 h; high values mean tight binding. The following applies: protein: recombinant; tags: N-terminal polyhistidine and DsRed monomer fusion (pET32a); label: CyDye5-dUTP incorporated in the synthesized complementary strand; 3' TTTTT single-stranded linker to array surface; dsDNA, one strand shown. The gist of the method:
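Transcription factors were each fused at the N-terminus to a polyhistidine tag plus DsRed and expressed in E. coli BL21-CodonPlus before Ni–NTA purification. Binding to a double-stranded custom Agilent array was carried out with 200 nM protein at 25 °C for 1 h in PBS, 2% BSA, salmon testes DNA and 50 µM zinc acetate. The binding signal is per-feature fluorescence intensity, in arbitrary units, on an Axon 4000B scanner.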
Turning to “CGTAAATTTCACTCGCTGTTGCCCTATCCTTAGCCGTTGACGGAGTCACCTAGTGCAG”, the binding signal was 8320 fluorescence intensity (a.u.).

For “TACTCTGATTTTGTCCATTACCAGCTGCAAATGGACCAGCCGGAGTCACCTAGTGCAG”, the binding signal is 19300 fluorescence intensity (a.u.).

Regarding “CTGACTGGTGACTGGTGGTGGGTGAGAACATCGCTTGGTCCGGAGTCACCTAGTGCAG”, the binding signal is 18800 fluorescence intensity (a.u.).

Consider “TGCATGGCTCAAAATTAAATTGCAATTCCAAATTGACAGTCGGAGTCACCTAGTGCAG”, for which the binding signal was 4880 fluorescence intensity (a.u.).

Turning to “GAATTGATTGAGGTTGAAGGCTTCAAGCGATATACGTACTCGGAGTCACCTAGTGCAG”, the binding signal was 44800 fluorescence intensity (a.u.).

As for “CTGACATAACTATCTGTTGGCTAATGGCTACAGTAAAGTTCGGAGTCACCTAGTGCAG”, the binding signal was 3150 fluorescence intensity (a.u.).

Turning to “TTTAATCACAAGCAAATCAATTAACTCATCCATACTCATCCGGAGTCACCTAGTGCAG”, the binding signal was 24200 fluorescence intensity (a.u.).

For “CGATAATTGTCACTGATTCAAAGTAAATATGTGTTCAGAACGGAGTCACCTAGTGCAG”, the binding signal was 36400 fluorescence intensity (a.u.).

As to “TGCTGATAGATCCAGTAGGTGTGTGCCAGCCACCAAGCAACGGAGTCACCTAGTGCAG”, the binding signal is 7200 fluorescence intensity (a.u.).

With “TGTTTTATTTGATTGGGAGACATGGGAATTTTGGTGGGATCGGAGTCACCTAGTGCAG”, the binding signal is 32000 fluorescence intensity (a.u.).

Turning to “AATTAATCATGTTGACAGCCGCAACGCTAGCTTGCCATAGCGGAGTCACCTAGTGCAG”, the binding signal was 8890 fluorescence intensity (a.u.).

Consider “ATTAACTTTCAAATTAAGGTTTAAAATTCAAGTTTTGGTTCGGAGTCACCTAGTGCAG”, for which the binding signal was 7720 fluorescence intensity (a.u.).

With “TTTTCTATCACATCAAAATTTTCCTAGGCTGTGTTTAGTTCGGAGTCACCTAGTGCAG”, the binding signal is 6960 fluorescence intensity (a.u.).

As to “TATATATATATATATATATATATATATATACTATATAAAGCGGAGTCACCTAGTGCAG”, the binding signal is 13200 fluorescence intensity (a.u.).

As for “AATATAAATGCAATTGTGATTTTCTGTGTTCAACATTTGACGGAGTCACCTAGTGCAG”, the binding signal was 8020 fluorescence intensity (a.u.).

Regarding “TCTGACCGAAATCTTTGGAGATAATTATGTATTGCAATTTCGGAGTCACCTAGTGCAG”, the binding signal was 10400 fluorescence intensity (a.u.).

On to “CTGCAATCACCAATTTTAAGTTTAATTTGAGATACAGTACCGGAGTCACCTAGTGCAG”, for which the binding signal is 21100 fluorescence intensity (a.u.).

Regarding “TATCAGGTAATTATTTACGCAAATTTGTGTATAATTGTGTCGGAGTCACCTAGTGCAG”, the binding signal is 13600 fluorescence intensity (a.u.).

Turning to “TTGCTCAGTTAATTATGGAGGCTAGCGTCTGAAGCGTTCACGGAGTCACCTAGTGCAG”, the binding signal was 3710 fluorescence intensity (a.u.).

Regarding “AACAATTGTTAACTGCGAAATTCTAAAACTGCTACTCCTACGGAGTCACCTAGTGCAG”, the binding signal was 5740 fluorescence intensity (a.u.).

“GCGCCATGATGTTCAATCAGATGACATCATAACGTAAAGACGGAGTCACCTAGTGCAG”: the binding signal is 18600 fluorescence intensity (a.u.).

On to “TAGGATTATGTTGGTGATGATGATGACTAGTGTGCCTGAACGGAGTCACCTAGTGCAG”, for which the binding signal was 4220 fluorescence intensity (a.u.).

On to “TACTTAATTATTCACATGCTAATGACTTATTTGCTACATTCGGAGTCACCTAGTGCAG”, for which the binding signal was 34300 fluorescence intensity (a.u.).

For “AATAATTGAAACAGAAAGCTTTAAGCTGCTGGTGTTCCCTCGGAGTCACCTAGTGCAG”, the binding signal was 33000 fluorescence intensity (a.u.).

For “ATCCTCTTTCATCTCATCCGTCCATCCACCATTTCATTTACGGAGTCACCTAGTGCAG”, the binding signal was 4000 fluorescence intensity (a.u.).

Turning to “AAATAATTGTTTAAGATTTATCCATGCCACTAAATAGTTTCGGAGTCACCTAGTGCAG”, the binding signal was 18500 fluorescence intensity (a.u.).

Take “GTGATTGACTGATTGTGTGATTGTGTGAAGTGTATTGGTTCGGAGTCACCTAGTGCAG”: the binding signal is 65000 fluorescence intensity (a.u.).

With “GTTAGTTAATGGAAGACAGCCCCTGGTACCTTTCCAATGGCGGAGTCACCTAGTGCAG”, the binding signal is 3650 fluorescence intensity (a.u.).

For “ATGTGTAAATTGAATTAATGGAGTTGGTTGTGAAATCGTTCGGAGTCACCTAGTGCAG”, the binding signal is 25300 fluorescence intensity (a.u.).

Consider “ACGGATTAATTAGGCTTAATAAATTTGCCTCGCGGTTTCTCGGAGTCACCTAGTGCAG”, for which the binding signal was 39200 fluorescence intensity (a.u.).

As to “AGTGTAATTTGTGACAATTACTCAGACAACTCTGCATTTTCGGAGTCACCTAGTGCAG”, the binding signal was 20700 fluorescence intensity (a.u.).

Regarding “ATGCCAATTAACCTCCAAGATAAGCATCCATCGATCCACCCGGAGTCACCTAGTGCAG”, the binding signal is 8590 fluorescence intensity (a.u.).

On to “TTATATTAATTGATGGTCATTATTGTTGGAGATTATATTGCGGAGTCACCTAGTGCAG”, for which the binding signal was 60800 fluorescence intensity (a.u.).

On to “TTTGATTAGATGGTGTGGTGTTTGGCTGATACACTGATACCGGAGTCACCTAGTGCAG”, for which the binding signal was 32500 fluorescence intensity (a.u.).

On to “CTGTTGTGAACAAACTAATTATTGGATGCTGAATTGATGACGGAGTCACCTAGTGCAG”, for which the binding signal is 4900 fluorescence intensity (a.u.).

For the sequence “GATGATTTTGTAACTCGGTGACAAGATGAGGGACCTCTGGCGGAGTCACCTAGTGCAG”, the binding signal was 23200 fluorescence intensity (a.u.).

Turning to “ATATATATATATATATATATATATATATATAGATACAATCCGGAGTCACCTAGTGCAG”, the binding signal was 6200 fluorescence intensity (a.u.).

On to “AACATTGATTAATATTGGTCAAAATATTTTCAACTCTAAACGGAGTCACCTAGTGCAG”, for which the binding signal was 19200 fluorescence intensity (a.u.).

Turning to “ACCTAAATTTGAATGCTTACATCATTTTGATGATAAATAACGGAGTCACCTAGTGCAG”, the binding signal was 8650 fluorescence intensity (a.u.).

Regarding “ACAAAATTAAGTTTAAAACTGACTTTATAATTTAAAGTTGCGGAGTCACCTAGTGCAG”, the binding signal was 9010 fluorescence intensity (a.u.).

For the sequence “CTTATATCTTAATTGGACTTGACTTCGGGCCAGAAGTACACGGAGTCACCTAGTGCAG”, the binding signal was 25200 fluorescence intensity (a.u.).

Regarding “CTATACTGATCTGTCCGGGCTAATTTATTCGGTCTTTTGCCGGAGTCACCTAGTGCAG”, the binding signal is 3950 fluorescence intensity (a.u.).

Values taken from paper PMC7819943, “Rice protein-binding microarrays: a tool to detect cis-acting elements near promoter regions in rice”.
